Measured values: paper PMC5567040
Read-outs that look alike come from different tables or passages of the source. These are yes or no findings as the source states them, for the method shown. For some assays here: Binding seen in cells or lysates may run through a third protein. Some binding calls cover weakened binding; strength is not graded here. For some assays here: Tags and fused reporters may be left off the sequences shown. Values belong to the molecule of their own block, whether it stands above or below them.

The chains behind the UniProt entries cited, without tags or fusion partners. Where a name states a change or a piece, a line headed by the entry shows the natural chain unless it says otherwise. A line that says so, or that is headed by a name, gives the form on record, which may keep a tag or linker. Residues count along the entry.
UniProt P04150: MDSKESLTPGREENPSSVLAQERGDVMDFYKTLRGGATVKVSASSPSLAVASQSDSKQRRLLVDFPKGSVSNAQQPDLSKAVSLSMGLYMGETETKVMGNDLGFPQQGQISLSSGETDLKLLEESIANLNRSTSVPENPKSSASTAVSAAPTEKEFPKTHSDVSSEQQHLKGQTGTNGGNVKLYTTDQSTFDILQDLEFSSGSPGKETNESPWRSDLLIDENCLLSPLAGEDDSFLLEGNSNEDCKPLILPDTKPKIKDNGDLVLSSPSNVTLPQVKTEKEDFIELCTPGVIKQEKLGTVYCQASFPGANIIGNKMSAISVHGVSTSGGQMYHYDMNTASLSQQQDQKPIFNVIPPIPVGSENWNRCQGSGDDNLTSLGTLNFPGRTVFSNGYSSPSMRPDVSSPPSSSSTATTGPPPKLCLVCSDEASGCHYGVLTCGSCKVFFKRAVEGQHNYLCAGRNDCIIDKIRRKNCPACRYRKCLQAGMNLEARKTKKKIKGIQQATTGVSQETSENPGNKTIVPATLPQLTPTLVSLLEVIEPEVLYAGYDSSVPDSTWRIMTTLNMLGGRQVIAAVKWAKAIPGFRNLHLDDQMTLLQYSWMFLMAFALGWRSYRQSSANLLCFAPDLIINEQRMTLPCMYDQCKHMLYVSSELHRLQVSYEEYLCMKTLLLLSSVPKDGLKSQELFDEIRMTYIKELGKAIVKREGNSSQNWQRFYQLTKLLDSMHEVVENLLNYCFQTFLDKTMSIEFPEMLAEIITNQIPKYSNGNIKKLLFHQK
Flag-GR Del487-777: residues 1-486 of P04150
Flag-GR Del417-777: residues 1-416 of P04150
Flag-GR Del1-401: residues 402-777 of P04150
Flag-GR Del1-416: residues 417-777 of P04150
Flag-GR Del417-486 (P04150, form named): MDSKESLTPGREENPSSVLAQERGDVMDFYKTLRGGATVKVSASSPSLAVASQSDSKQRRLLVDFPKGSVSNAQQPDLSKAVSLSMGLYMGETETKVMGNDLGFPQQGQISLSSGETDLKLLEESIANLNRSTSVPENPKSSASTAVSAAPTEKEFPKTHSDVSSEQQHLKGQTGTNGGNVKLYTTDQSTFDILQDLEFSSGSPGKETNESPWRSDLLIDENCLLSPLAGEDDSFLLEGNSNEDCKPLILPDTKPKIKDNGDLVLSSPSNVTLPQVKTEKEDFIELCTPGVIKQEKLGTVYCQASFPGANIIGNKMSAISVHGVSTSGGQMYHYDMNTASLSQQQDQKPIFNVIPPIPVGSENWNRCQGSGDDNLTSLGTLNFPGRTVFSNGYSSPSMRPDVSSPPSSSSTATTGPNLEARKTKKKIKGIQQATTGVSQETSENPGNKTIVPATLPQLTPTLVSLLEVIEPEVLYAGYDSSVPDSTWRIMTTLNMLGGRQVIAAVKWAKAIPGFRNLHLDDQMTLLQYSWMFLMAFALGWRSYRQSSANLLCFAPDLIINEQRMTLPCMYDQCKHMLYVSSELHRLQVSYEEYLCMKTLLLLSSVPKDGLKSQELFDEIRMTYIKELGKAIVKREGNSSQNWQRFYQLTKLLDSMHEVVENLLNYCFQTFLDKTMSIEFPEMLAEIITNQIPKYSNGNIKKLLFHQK
UniProt P67775: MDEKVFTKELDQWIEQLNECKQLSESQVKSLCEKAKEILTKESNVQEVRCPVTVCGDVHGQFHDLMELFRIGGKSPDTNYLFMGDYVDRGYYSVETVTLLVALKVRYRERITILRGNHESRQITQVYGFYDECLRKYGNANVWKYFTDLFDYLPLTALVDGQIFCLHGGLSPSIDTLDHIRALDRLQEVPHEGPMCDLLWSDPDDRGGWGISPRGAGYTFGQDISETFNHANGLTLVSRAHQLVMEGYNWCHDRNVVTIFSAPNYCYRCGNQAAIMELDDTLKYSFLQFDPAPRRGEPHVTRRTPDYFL

Assays:
[1] = target: T1, Flag-STRN3 (pMet7-Flag-STRN3), in HEK293T (human) (UniProt Q13033); assay: co-IP; HEK293T cells transfected in 10 cm dishes; lysates on Anti-Flag M2 Affinity Gel overnight at 4 °C; washed 4x in buffer A with 150 mM NaCl and 0.5% Triton-X 100; immunoblot; cells treated with vehicle or 1 µM Dex for 2 h
T1 sequence: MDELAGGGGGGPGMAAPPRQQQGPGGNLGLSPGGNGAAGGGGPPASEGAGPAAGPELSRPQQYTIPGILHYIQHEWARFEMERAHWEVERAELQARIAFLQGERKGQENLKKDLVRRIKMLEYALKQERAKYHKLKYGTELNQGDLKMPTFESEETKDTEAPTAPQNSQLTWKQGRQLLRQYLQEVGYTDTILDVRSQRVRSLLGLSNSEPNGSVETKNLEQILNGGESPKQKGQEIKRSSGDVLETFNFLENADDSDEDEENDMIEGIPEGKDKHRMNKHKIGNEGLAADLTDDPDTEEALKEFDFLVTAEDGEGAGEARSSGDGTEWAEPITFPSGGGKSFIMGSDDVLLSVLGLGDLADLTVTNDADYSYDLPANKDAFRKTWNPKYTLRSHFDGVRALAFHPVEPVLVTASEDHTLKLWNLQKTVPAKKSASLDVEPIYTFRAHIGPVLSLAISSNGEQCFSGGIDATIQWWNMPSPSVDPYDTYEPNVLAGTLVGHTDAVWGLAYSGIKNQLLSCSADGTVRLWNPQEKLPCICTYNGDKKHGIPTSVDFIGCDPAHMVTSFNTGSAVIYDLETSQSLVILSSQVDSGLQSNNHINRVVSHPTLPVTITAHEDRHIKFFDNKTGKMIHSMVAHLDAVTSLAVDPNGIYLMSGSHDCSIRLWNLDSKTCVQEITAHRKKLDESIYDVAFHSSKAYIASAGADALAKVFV

[2] = target: T2, Flag-STRN3, over-expressed in A549 cells (human) (UniProt Q13033); assay: co-IP; A549 cell lysate with over-expressed Flag-STRN3; immunoprecipitation of Flag-STRN3, blot for endogenous pS211 GR and endogenous PPP2CA; without or with Dex (Supplementary S7)
T2 sequence: T1 sequence

[3] = target: Flag-GR Del417-777 (human) (UniProt P04150); assay: co-IP; HEK293T cells transfected in 10 cm dishes; lysates on Anti-Flag M2 Affinity Gel overnight at 4 °C; washed 4x in buffer A with 150 mM NaCl and 0.5% Triton-X 100; immunoblot; cells treated with vehicle or 1 µM Dex for 2 h
[4] = target: Flag-GR Del487-777 (human) (UniProt P04150); assay: as above
[5] = target: human glucocorticoid receptor alpha, MAPPIT bait (pCLG-hGRα) (human) (UniProt P04150); assay: two-hybrid; MAPPIT (mammalian protein-protein interaction trap) in HEK293T cells; GR bait on a mutated Leptin receptor, STRN3 prey on a gp130 fragment, rPAP1-Luc reporter; leptin (100 ng/ml) plus medium or leptin plus Dex (1 µM), 24 h
[6] = target: Flag-GR (wild type) (human) (UniProt P04150); assay: co-IP; HEK293T cells transfected in 10 cm dishes; lysates on Anti-Flag M2 Affinity Gel overnight at 4 °C; washed 4x in buffer A with 150 mM NaCl and 0.5% Triton-X 100; immunoblot; cells treated with vehicle or 1 µM Dex for 2 h
Flag-GR Del1-401 (human) = Flag-GR Del1-401 (human) (UniProt P04150); assay: as above
Flag-GR Del1-416 (human) = Flag-GR Del1-416 (human) (UniProt P04150); assay: as above
[7] = target: Flag-GR Del417-486 (human) (UniProt P04150); assay: as above
[8] = target: Flag-GR Del417-777 (human) (UniProt P04150); assay: as above; remark: listed apart in the source
[9] = target: Flag-GR Del487-777 (human) (UniProt P04150); assay: as above; remark: listed apart in the source
Flag-GR S211A (human) = Flag-GR S211A (human) (UniProt P04150); assay: as above

binding [1]: binds
Molecule: PPP2CA, catalytic subunit of protein phosphatase 2A, over-expressed (from UniProt P67775 1-309) (enzyme)

binding [2]: binds
Molecule: endogenous GR phosphorylated at S211, A549 cells (from UniProt P04150 1-777) (receptor)

binding [1]: binds
Molecule: CFP-GR (pECFP-GRα) (from UniProt P04150 1-777) (receptor)

binding [2]: binds
Molecule: endogenous PPP2CA of A549 cells (from UniProt P67775 1-309) (enzyme)

Molecule: endogenous PPP2CA of HEK293T cells (from UniProt P67775 1-309) (enzyme)
binding [3]: no binding
binding [4]: no binding

binding [5]: binds
B1: human Striatin-3 isoform alpha, MAPPIT prey (pMG1-hSTRN3) (protein, UniProt Q13033-2 1-713)
chain: T1 sequence

binding [6]: binds
binding (Flag-GR Del1-401 (human)): binds
binding (Flag-GR Del1-416 (human)): binds
binding [7]: binds
binding [8]: no binding
binding [9]: binds weakly
binding (Flag-GR S211A (human)): binds
B2: YFP-STRN3 (pMet7-YFP-STRN3a) (protein, UniProt Q13033-2 1-713)
chain: T1 sequence
